Assay results reported in article PMC5945890.
These are yes or no findings as the source states them, for the method shown. Binding seen in cells or lysates may run through a third protein. Some entries that bind do so weakly or less than the wild type. Tags and fused reporters may be left off the sequences shown.

T1: GST-CPSF30-L (Arabidopsis thaliana) (UniProt A9LNK9)
T1 sequence: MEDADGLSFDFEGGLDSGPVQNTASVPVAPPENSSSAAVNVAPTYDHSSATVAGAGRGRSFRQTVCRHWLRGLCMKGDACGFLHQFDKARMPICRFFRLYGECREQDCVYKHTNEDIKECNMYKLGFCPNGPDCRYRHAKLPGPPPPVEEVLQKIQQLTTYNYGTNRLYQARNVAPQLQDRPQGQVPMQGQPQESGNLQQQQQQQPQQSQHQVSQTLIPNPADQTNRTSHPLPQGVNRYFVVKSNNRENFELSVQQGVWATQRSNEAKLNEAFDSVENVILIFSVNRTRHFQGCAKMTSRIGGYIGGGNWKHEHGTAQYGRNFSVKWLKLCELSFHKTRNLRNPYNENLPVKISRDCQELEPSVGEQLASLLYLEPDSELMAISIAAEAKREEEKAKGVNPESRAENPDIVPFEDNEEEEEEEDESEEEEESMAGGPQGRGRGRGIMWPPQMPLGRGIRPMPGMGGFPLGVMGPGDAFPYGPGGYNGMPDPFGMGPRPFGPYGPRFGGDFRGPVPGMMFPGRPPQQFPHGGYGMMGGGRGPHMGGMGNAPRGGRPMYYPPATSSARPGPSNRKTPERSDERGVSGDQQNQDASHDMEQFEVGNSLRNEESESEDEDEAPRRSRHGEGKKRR

T2: GST-mCPSF30-L (Arabidopsis thaliana) (UniProt A9LNK9)
T2 sequence: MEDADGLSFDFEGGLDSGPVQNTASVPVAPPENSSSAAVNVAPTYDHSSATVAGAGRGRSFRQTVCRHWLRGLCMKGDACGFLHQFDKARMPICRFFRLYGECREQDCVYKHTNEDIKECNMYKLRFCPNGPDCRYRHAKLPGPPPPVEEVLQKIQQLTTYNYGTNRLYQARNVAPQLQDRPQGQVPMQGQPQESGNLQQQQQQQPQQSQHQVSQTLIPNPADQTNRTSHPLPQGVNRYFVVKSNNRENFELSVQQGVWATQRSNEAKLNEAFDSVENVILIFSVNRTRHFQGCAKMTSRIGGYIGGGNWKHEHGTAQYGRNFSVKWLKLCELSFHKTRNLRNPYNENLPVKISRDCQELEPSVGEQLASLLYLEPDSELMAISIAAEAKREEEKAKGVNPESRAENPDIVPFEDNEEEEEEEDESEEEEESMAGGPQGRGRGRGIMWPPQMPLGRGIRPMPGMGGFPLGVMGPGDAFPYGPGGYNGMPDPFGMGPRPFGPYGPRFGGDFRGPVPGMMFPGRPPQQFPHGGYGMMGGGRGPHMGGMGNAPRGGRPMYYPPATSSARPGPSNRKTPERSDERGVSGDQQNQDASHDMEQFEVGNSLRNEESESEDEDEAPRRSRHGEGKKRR

T3: CPSF30-L-YFP^N (Arabidopsis thaliana) (UniProt A9LNK9)
T3 sequence: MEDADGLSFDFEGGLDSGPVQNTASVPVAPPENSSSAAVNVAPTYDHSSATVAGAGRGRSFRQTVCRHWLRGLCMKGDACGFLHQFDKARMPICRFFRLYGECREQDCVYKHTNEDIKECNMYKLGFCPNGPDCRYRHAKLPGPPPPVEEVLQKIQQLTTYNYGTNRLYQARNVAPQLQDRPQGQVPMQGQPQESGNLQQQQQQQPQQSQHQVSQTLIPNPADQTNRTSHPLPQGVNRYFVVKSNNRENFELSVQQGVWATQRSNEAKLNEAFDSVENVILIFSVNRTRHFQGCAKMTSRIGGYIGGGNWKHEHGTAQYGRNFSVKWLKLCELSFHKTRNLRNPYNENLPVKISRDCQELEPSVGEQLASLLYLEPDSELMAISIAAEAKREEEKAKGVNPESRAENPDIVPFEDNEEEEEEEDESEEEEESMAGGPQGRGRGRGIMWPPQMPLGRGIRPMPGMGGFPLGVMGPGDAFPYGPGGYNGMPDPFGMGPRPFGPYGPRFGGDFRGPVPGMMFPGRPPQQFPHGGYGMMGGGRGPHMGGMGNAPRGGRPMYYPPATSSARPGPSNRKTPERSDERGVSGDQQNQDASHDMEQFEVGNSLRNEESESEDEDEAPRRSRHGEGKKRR


How the values were obtained:
[1] = target: T1, GST-CPSF30-L (Arabidopsis thaliana); test: pull-down; GST-tagged bait immobilised on glutathione agarose beads (Thermo GST protein interaction pull-down kit), His-tagged prey, both made in E. coli BL21; eluate blotted with anti-His antibody
[2] = target: T2, GST-mCPSF30-L (Arabidopsis thaliana); test: as above
[3] = target: T3, CPSF30-L-YFP^N (Arabidopsis thaliana); test: split reporter; BiFC; YFP^N and YFP^C fusions cotransfected into Arabidopsis mesophyll protoplasts, confocal microscopy; signal in the nucleus

| Binder | binding [1] | binding [2] | binding [3] |
| --- | --- | --- | --- |
| His-FIP1 (protein, UniProt F4KDH9 1-1196) MEEDDEFGDLYSDVLQPFQPPVVLPPPPPLPHRSIDLNLRSQDQDVSEPNSAPISRVSDNDAVKLSTQDATRQAIVDGGGDDKDMSFDIEEPDADSTPTIPGLFVTGALPGLATDRGVSQVTTRIEQQVGGGGDGGYGGQGEGDDWDSDSEDDLQIVLNDSSRNVMIGGADRRSRMGDNEDDDDEDDEDPLVIVADTDPNQPMEEQMWGEDGLQGIEGDGKDGGEAGKGSGPGGATGPPKAGYSSHGYHPFHSQFKYVRPGAAPIPGGAASVGGPSSGQVRPPANLGPMAGRGRGDWRPLGMRNASAAQKGFHQPWGSNTAGRGLDFTLPSHKTIFEVDIDSFEEKPWRYPGVEMTDYFNFGLNEESWKDYCKQLDQHRIQTTMQSRIRVYESGRTDQGYDPDLPPELAAATGAQGVPVDSSNLVKPDSVQGDSAKVPANVRPTLPPGRPIPVETGSGERLPSIDTRAPRMRDLDAIIEIVCQDSHEDEPSGENGTDQADSSLPGENVPVETSYVNNKRPDTESAEHSPAQDEPHKNLLKKQDDEISRSTDSGQSFRSSSPVGDRGTRSSSVDREDVGGEAGKDAEMGEELKMSFTSPQSAVQEDDGGESKTERSSESSKARSGSHRDFQQEEDVIQDKHSSRPANNRKQYDNNAPHQSRKNQDRGKEMERTRAASKGGRENSNPHMELDSTYIYSIASREDFDKRKERDVDGAVWRRKEDDPYSRRGGDEGSRKRDREDDPGFRQRGKMRENEIRSKDDQVPSRKHMDDAGMRNIYEPDDHINKRRKDEEYLRRSRPEKNEISYGQRESMSRVKRERDDRLEHQKRDVQHKIRDDFDDHGSLRQRDDIYMQRDGNERLRERDVLDKLKLPHEDGISARGRERQVAVRGHRGSEDRSSRMKDEYKASDKEHVTKDTLRHAKQTKRRDYPGEESSSHHRGHEDFSARTDNIVNNEKKPRQERTGAKIDKFIDTLDGQRLQDRKHKDSRRKIKEQREGTESLSKQGEQNGSSVVTGSKGTNDARNCRSEIPHQPNTAKRHKENASSGDEIHDSKRGRTKLERWASHKEREDAVSAKSSSISSKLEEKENNTNGRLSEPVHGSIGKSRDVTEEKIGHDLADTKDGSEKGPGDRHLDTVEKLKKRSERFKLPMPTEKDTTGVKKMESETLPSAKIEGPVDSEGEYVWDERSCVRIGREYA | binds | no binding | – |
| His-FIP1-S1 (domain or fragment, UniProt F4KDH9 1-445) MEEDDEFGDLYSDVLQPFQPPVVLPPPPPLPHRSIDLNLRSQDQDVSEPNSAPISRVSDNDAVKLSTQDATRQAIVDGGGDDKDMSFDIEEPDADSTPTIPGLFVTGALPGLATDRGVSQVTTRIEQQVGGGGDGGYGGQGEGDDWDSDSEDDLQIVLNDSSRNVMIGGADRRSRMGDNEDDDDEDDEDPLVIVADTDPNQPMEEQMWGEDGLQGIEGDGKDGGEAGKGSGPGGATGPPKAGYSSHGYHPFHSQFKYVRPGAAPIPGGAASVGGPSSGQVRPPANLGPMAGRGRGDWRPLGMRNASAAQKGFHQPWGSNTAGRGLDFTLPSHKTIFEVDIDSFEEKPWRYPGVEMTDYFNFGLNEESWKDYCKQLDQHRIQTTMQSRIRVYESGRTDQGYDPDLPPELAAATGAQGVPVDSSNLVKPDSVQGDSAKVPANVRPTL | binds | – | – |
| FIP1-S1-YFP^C (domain or fragment, UniProt F4KDH9 1-445) MEEDDEFGDLYSDVLQPFQPPVVLPPPPPLPHRSIDLNLRSQDQDVSEPNSAPISRVSDNDAVKLSTQDATRQAIVDGGGDDKDMSFDIEEPDADSTPTIPGLFVTGALPGLATDRGVSQVTTRIEQQVGGGGDGGYGGQGEGDDWDSDSEDDLQIVLNDSSRNVMIGGADRRSRMGDNEDDDDEDDEDPLVIVADTDPNQPMEEQMWGEDGLQGIEGDGKDGGEAGKGSGPGGATGPPKAGYSSHGYHPFHSQFKYVRPGAAPIPGGAASVGGPSSGQVRPPANLGPMAGRGRGDWRPLGMRNASAAQKGFHQPWGSNTAGRGLDFTLPSHKTIFEVDIDSFEEKPWRYPGVEMTDYFNFGLNEESWKDYCKQLDQHRIQTTMQSRIRVYESGRTDQGYDPDLPPELAAATGAQGVPVDSSNLVKPDSVQGDSAKVPANVRPTL | – | – | binds |
